Results taken from PubChem BioAssay AID1240 (Sanford-Burnham Center for Chemical Genomics, 2008).
“And” between values parts separate entries of the source, which are not always exact repeats. Equal entries are not always repeated. The whole screen tested about 50,000 compounds, of which about 800 (1.6%) showed an effect of 50% or more. The list shows a part of the results.

Each molecule was assayed against Bcl-2-like protein 10 (Homo sapiens) (UniProt Q9HD36) (assay: Phenotype converters, Bcl-B/TR3 peptide binding displacement, primary biochemical FP (AID 1240;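 also: 0% = Bcl-B with tracer peptide and DMSO and 100% = tracer peptide lacking Bcl-B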)). Details: GST-Bcl-B / FITC-TR3 peptide fluorescence polarization; stronger effect = higher value; compound at 3.75 mg/L.
Chain of UniProt Q9HD36 (Q9HD36 whole entry, looked up): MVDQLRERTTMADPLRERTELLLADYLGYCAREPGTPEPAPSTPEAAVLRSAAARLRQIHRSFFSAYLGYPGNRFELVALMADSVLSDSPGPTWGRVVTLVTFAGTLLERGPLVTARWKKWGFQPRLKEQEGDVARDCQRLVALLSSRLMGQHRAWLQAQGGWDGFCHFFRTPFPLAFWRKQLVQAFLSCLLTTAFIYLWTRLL

Row | Structure (SMILES) | displacement
1 | C=CCN1C(=O)C(Cc2ccc(Br)cc2)S/C1=N\N=C\c1cccs1 (configuration not stated) | 12.9%
2 | O=C(Nc1ccccc1)c1ccc(Cl)c(Cl)c1 | -3.3%
3 | Clc1ccc2oc(-c3ccccc3Cl)nc2c1 | -5.8%
4 | O=C(c1ccc([N+](=O)[O-])cc1)N1CCN(Cc2cccc(Oc3ccccc3)c2)CC1 | -2.9%
5 | Cc1oc(C(C)(C)C)cc1C(=O)Nc1ccc(N(C)C)cc1 | 1.6%
6 | O=C(c1c(Cl)cccc1Cl)N(Cc1ccccc1)c1ccccn1 | 17.7%
7 | O=C(O)c1ccc(NCc2cccs2)cc1 | 13.9%
8 | O=C(Nc1sc2c(c1C(=O)O)CCCCC2)c1ccccc1Cl | 20%
9 | Cc1ccccc1C(=O)N=Nc1c(O)n(CN(C)C)c2ccccc12 | -7.4%
10 | CC1=CC(C)C2COC(c3cccnc3)C1C2C (configuration not stated) | 3.2%
11 | CN1C2C=C(N(CCc3c[nH]c4ccccc34)C(=O)c3cc(Cl)cc(Cl)c3)CC1CC2 (configuration not stated) | -4%
12 | CC(C)COc1ccc(C(=O)N/C(=C/c2ccc3c(c2)OCO3)C(N)=O)cc1 | 2.9%
13 | COC(=O)C1=C(C)N(c2ccccc2)/C(=C\c2ccc(OCC(=O)Nc3ccccc3OC)cc2)C1=O | 55.5%
14 | Cc1c(N(C(=O)c2ccc(N)cc2)C(C)C)c(=O)n(-c2ccccc2)n1C | 4.9%
15 | Cc1nn(Cc2ccccc2)c(C)c1S(=O)(=O)O | -6.1%
16 | CCOC(=O)c1ccc(NC(=O)C2CCCN2S(=O)(=O)c2ccc(C)cc2)cc1 (configuration not stated) | 1.2%
17 | O=C(Nc1ccc(-c2nc3ccccc3[nH]2)cc1)c1ccc(Cl)c(Cl)c1 | 3.8%
18 | O=C1NN(c2ccccc2)C(=O)/C1=C/c1ccc(-c2cccc([N+](=O)[O-])c2)o1 | -27.5%
19 | CCOC(=O)c1c(NC(=O)CCN2CCCC2)sc2c1CC(C)(C)OC2 | -6.7%
20 | CCN(C(=S)NC(=O)c1cccnc1)c1ccccc1 | 10.6%
21 | COc1ccc2ccccc2c1/C=C1\SC(=S)N(C2CCCCC2)C1=O | -2.7%
22 | Cc1ccc(-n2nc3cc(C)c(NC(=O)COc4ccc([N+](=O)[O-])cc4)cc3n2)cc1 | -3.8%
23 | C=C(C)c1cccc(C(C)(C)NC(=O)NC2CCCC2)c1 | 1.8%

Row | Structure (SMILES) | displacement
24 | CC(Nc1cc(N2CCN(C)CC2)ccc1[N+](=O)[O-])C12CC3CC(CC(C3)C1)C2 (configuration not stated) | 1.9% and 15.8%
25 | CCOC(=O)c1c(C)sc(Sc2ccccc2[N+](=O)[O-])c1OC(C)=O | -6.6%
26 | COC(=O)C(NC(=O)c1ccc(C)cc1)C12CC3CC(CC(C3)C1)C2 (configuration not stated) | -3%
27 | O=C(Nc1ccccc1)c1ccccc1NC(=O)c1ccccc1C(=O)O | 0.4%
28 | Cc1ccc(NC(=S)NCCOc2ccccc2Cc2ccccc2)c(C)c1 | 9.9%
29 | COc1ccc(-c2cc(C(=O)N/N=C/c3c(C)[nH]c4ccccc34)[nH]n2)cc1 | -18.8%
30 | CC(C)(C)c1cc(N2C(=O)C(=O)/C(=C(/O)c3ccc(Cl)cc3)C2c2cccc([N+](=O)[O-])c2)no1 (configuration not stated) | 2.7%
31 | O=C1NC(=S)N(c2cccc(Br)c2)C(=O)/C1=C\c1ccc(-c2ccccc2[N+](=O)[O-])o1 | 6%
32 | CC(=O)c1cccc(N2C(=O)C3CCCCC3C2=O)c1 (configuration not stated) | -12.9%
33 | O=C(O)CCC(=O)Nc1cc(Cl)cc(Cl)c1 | -9.1%
34 | Fc1ccc(Cc2cnc(Nc3ccc(F)cc3)s2)cc1 | 10.6%
35 | CCN(C(=O)c1sc(NC(=O)c2ccc(Cl)cc2)c(C#N)c1C)C1CCCCC1 | -1.3%
36 | COc1ccccc1C(=O)N1CCN(Cc2ccccc2Cl)CC1 | -22.4%
37 | O=S(=O)(c1cc(Cl)ccc1Cl)N1CCC(Cc2ccccc2)CC1 | 0%
38 | CCc1cc2c(-c3ccccc3)cc(=O)oc2cc1OC(C)=O | -7.7%
39 | Cc1cc(C)c(C(=O)c2ccc(C(=O)Nc3cc(C)c(O)c(C)c3)cc2)c(C)c1 | -5.7%
40 | CCc1c(C)sc(NC(=O)c2cccc(Br)c2)c1C(N)=O | -4.4%
41 | O=[N+]([O-])c1ccc(C=Nc2ccc(OC(F)(F)F)cc2)cc1 | 8.2%
42 | O=C(NCCCO)/C(=C/c1ccc(-c2cccc([N+](=O)[O-])c2)o1)NC(=O)c1ccccc1 | 8.3%
43 | O=C(N/C(=C/c1ccc(Cl)cc1)c1nc2ccccc2[nH]1)c1ccccc1 | -0.7%
44 | Cc1cc(C)nc(NS(=O)(=O)c2ccc(N=Cc3c(C)[nH]n(-c4ccc(C)c(C)c4)c3=O)cc2)n1 | 45%
45 | CCCCCOC(=O)CSc1nnc(-c2ccc(Cl)cc2Cl)o1 | 6.7%
46 | O=C(O)c1cc(NC(=O)c2cccc(N3C(=O)c4ccccc4C3=O)c2)cc(C(=O)O)c1 | -19%

Row | Structure (SMILES) | displacement
47 | COc1ccc(C(=O)N2CCN(C3CCCC3)CC2)cc1 | -11%
48 | Cc1cc(Cl)ccc1OCC(=O)O/N=C(\N)c1ccncc1 | -3.3%
49 | CC(=O)C(Sc1ccc(C)cc1)C(=O)c1ccccc1 (configuration not stated) | 12.1%
50 | O=C(Nc1c(F)cc(F)cc1Br)c1cc2n(n1)C(C(F)(F)F)CC(c1ccc(Cl)cc1)N2 (configuration not stated) | 2.2%
51 | CCC(Nc1ccc(Br)cc1)C(=O)N/N=C/c1ccc(Cl)cc1Cl (configuration not stated) | 35.4%
52 | O=C(COc1ccc([N+](=O)[O-])cc1)Nc1cc(Cl)cc(Cl)c1 | -4.7%
53 | Cc1ccc(N2C(=O)CC(Sc3ccc4ccccc4c3)C2=O)cc1 (configuration not stated) | -0.8%
54 | COc1ccccc1NC(=O)c1c(N)sc2c1CCC2 | 13.9%
55 | Cc1oc2cc(Br)c(OC(=O)C(C)(C)C)cc2c1C(=O)OC(C)C | 9%
56 | Cc1ccc2sc(-c3ccc(NCc4ccc5c(c4)OCO5)cc3)nc2c1 | -0.2%
57 | COC(=O)c1c(C)oc2ccc(OCc3cccc(Br)c3)cc12 | 9.3%
58 | CN(C)S(=O)(=O)c1ccc(C(=O)Nc2nc(-c3ccccc3)c(-c3ccccc3)s2)cc1 | 27.8%
59 | COc1ccc(Cl)cc1S(=O)(=O)n1ccnc1C(C)C | -12.1%
60 | Clc1ccc(-c2noc(-c3ccc(-c4ccccc4)cc3)n2)cc1 | -1.7%
61 | O=C1C2C3c4ccccc4C(CO)(c4ccccc43)C2C(=O)N1c1ccc(Cl)c(Cl)c1 (configuration not stated) | 0.4%
62 | O=C(NC(=S)Nc1nc(-c2ccccc2)cs1)c1ccco1 | 13.5%
63 | CCOC(=O)C(CCOc1ccc(C)cc1C)C(=O)OCC | -5.7%
64 | O=C(/C=C/c1cn(-c2ccccc2)nc1-c1ccc(Cl)cc1)c1cccs1 | 9%
65 | Cc1cc(C)cc(NC(=O)C(=O)NCc2cccnc2)c1 | 4.8%
66 | O=C1C(=Cc2ccc(Oc3ccc([N+](=O)[O-])cn3)cc2)C(=O)c2ccccc21 | 4.6%
67 | N#C/C(=C\c1ccc(-c2ccc3c(c2)COC3=O)o1)c1nc2ccccc2[nH]1 | 58.6%
